Measured values as given in paper PMC5700166.
The entries are a selection whose mix differs from that of the whole data set. The list includes weakly bound sequences.

Assays:
Experiment in all cases: protein-binding microarray (PBM)
Details in all cases: PBM: ~300 nM protein, 6 mM HEPES pH 7.8, 80 mM KCl, 0.5 mM EDTA, 0.5 mM EGTA, 6% glycerol, 35 ng/ul poly-dIdC, 1% milk, 1 h, room temperature; Ap Aiptasia and Nv Nematostella (sea anemones) / Co Capsaspora / Aq Amphimedon (sponge) / Dm Drosophila / Hu human; RHD is the Rel homology domain; high values mean tight binding; most listed sequences are background and not binding sites; double strand, one strand shown
GST-Ap-NF-kB RHD = molecular target: T1, GST-Ap-NF-kB RHD (UniProt A0A913YAJ5)
T1 sequence: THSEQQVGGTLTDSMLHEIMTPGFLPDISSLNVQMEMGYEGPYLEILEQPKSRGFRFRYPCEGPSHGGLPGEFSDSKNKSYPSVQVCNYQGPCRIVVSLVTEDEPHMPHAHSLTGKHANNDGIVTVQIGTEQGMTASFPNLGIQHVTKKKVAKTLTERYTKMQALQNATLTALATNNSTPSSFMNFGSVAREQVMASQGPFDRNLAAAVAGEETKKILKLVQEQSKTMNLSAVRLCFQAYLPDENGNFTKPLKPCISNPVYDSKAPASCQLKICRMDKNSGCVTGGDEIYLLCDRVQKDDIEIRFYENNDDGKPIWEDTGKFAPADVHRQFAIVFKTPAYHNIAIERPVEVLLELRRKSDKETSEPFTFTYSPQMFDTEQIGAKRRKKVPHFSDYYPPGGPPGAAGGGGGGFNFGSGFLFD

[1] = molecular target: T2, GST-Nv-NF-kB (Cys allele) (UniProt E5G601)
T2 sequence: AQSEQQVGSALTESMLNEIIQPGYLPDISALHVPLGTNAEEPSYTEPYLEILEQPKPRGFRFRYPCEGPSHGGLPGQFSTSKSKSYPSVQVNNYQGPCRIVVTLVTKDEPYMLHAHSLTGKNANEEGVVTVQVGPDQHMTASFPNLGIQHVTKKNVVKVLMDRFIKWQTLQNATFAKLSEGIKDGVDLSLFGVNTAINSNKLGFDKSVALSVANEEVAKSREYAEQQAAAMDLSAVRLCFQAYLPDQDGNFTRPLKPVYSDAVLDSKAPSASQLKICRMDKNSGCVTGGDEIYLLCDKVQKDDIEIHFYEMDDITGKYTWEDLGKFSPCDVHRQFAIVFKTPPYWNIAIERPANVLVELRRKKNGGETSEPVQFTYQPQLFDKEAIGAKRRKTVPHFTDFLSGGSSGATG

GST-Co-NF-kB = molecular target: T3, GST-Co-NF-kB (UniProt F1ARL5)
T3 sequence: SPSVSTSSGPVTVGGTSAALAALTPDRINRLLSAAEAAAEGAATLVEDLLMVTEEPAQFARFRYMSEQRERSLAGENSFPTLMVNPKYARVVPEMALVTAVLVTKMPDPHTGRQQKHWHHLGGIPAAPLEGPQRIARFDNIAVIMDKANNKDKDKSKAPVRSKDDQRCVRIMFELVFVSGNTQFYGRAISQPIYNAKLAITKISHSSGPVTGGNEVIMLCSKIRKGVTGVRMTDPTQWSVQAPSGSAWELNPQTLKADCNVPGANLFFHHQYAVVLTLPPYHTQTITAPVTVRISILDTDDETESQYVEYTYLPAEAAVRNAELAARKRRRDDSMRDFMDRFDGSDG

Sequence | binding signal (GST-Ap-NF-kB RHD) [z-score] | binding signal [1] [z-score] | binding signal (GST-Co-NF-kB) [z-score]
CCGATTAACATCACAGGATTTCCTGATGTTAATCGGGTCTTGATTCGCTTGACGCTGCTG | 0.719 | -0.213 | 0.159
CCGATTAACATCAAAAAATGCCCTGATGTTAATCGGGTCTTGATTCGCTTGACGCTGCTG | 2.08 | 3.03 | 1
CCGATTAACATCAGGAAAGTACATGATGTTAATCGGGTCTTGATTCGCTTGACGCTGCTG | -0.604 | 0.0184 | 0.383
CCGATTAACATCAAAATCTTCCCTGATGTTAATCGGGTCTTGATTCGCTTGACGCTGCTG | 5.74 | 5.94 | 4.16
CCGATTAACATCAGGAATTTACATGATGTTAATCGGGTCTTGATTCGCTTGACGCTGCTG | -0.0934 | 0.174 | 0.345
CCGATTAACATCAGGAATTCCGATGATGTTAATCGGGTCTTGATTCGCTTGACGCTGCTG | 0.374 | -0.093 | -0.559
CCGATTAACATCAGTACTTTCCATGATGTTAATCGGGTCTTGATTCGCTTGACGCTGCTG | -0.412 | -0.524 | -0.000814
CCGATTAACATCAAAATCCCCCATGATGTTAATCGGGTCTTGATTCGCTTGACGCTGCTG | 9.1 | 9.28 | 6.67
CCGATTAACATCAGGATTTTTCATGATGTTAATCGGGTCTTGATTCGCTTGACGCTGCTG | -0.0203 | 0.0772 | -0.556
